In PMC12136788:
The list shows a part of the results.

B1: chr6:17764380:17764481:-|CDS|ENSG00000137177|msi1|FALSE|unique (ssRNA)
RNA: GGGAGUUCUACAGUCCGACGAUCCCAGAGCAUCCCUGAGAAAAACUCCAAAUCACUGUGCAGGACUGGCUCAUGUUCAGAACUAGAUGCCUGCCCCAGCAAAAUUAGCCAGCCAGCCAGGGGAUUCUGCCCCAGGGAGGUGACCAACAGAGGAUUGAGCAUCA
B2: chr6:7881277:7881391:+|3pUTR|ENSG00000153162|unk|FALSE|unique (ssRNA)
RNA: GGGAGUUCUACAGUCCGACGAUCGCUGUUUAUGAACGGAAAUCAUGAUUUCCCUUGUAGAAAGUGAGGCUCAGAUUAAAUUUUAGAAUAUUUUCUAAAUGUCUUUUUCACAAUCAUGUACUGGGAAGGCAAUUUCAUACUAAACAACAGAGGAUUGAGCAUCA
B3: ENSG00000198589:be:win_5551|CDS|ENSG00000198589|bound_else_gene|NA|bound_elsewhere_windowed (ssRNA)
RNA: GGGAGUUCUACAGUCCGACGAUCGUGGAAUUGGUUAUGCUACUGUGUUCUCAGGAGUGGCAAAAUUCUAUUCAGAAGAAUGCAGGCCUUGCUUUUAUCGAACUUGUCAAUGAAGGAAGGUUGCUUAGCCAGACAAUGAAGGAUCAACAGAGGAUUGAGCAUCA
B4: chr2:73228009:73228453:-|three_prime_utr|ENSG00000135617|control|control|control (ssRNA)
RNA: GGGAGUUCUACAGUCCGACGAUCUAAGUGACUCUGAGCUGGGAAGGGGAAACCCAGGAAUUUUGCUACUUGGAAUUUGGAGAUAGCAUCUGGGGACAAGUGGAGCCAGGUAGAGGAAAAGGGUUUGGGCGUUGCUAGGCUGAACAACAGAGGAUUGAGCAUCA
B5: chrX:65740646:65740790:+|3pUTR|ENSG00000147065|msi1|total|mutant (ssRNA)
RNA: GGGAGUUCUACAGUCCGACGAUCGGCCAUUCUAUUGUGGCAAGGCUGAGCCGAAGAUCCUACCCCAAUUCCUUGCCGGAGUACCGGCCGGUCUAAAGUGAGCUCUAUGGGCAGAUCUACCCCUUACUUAUUAUUCCAGAUCUGCAACAGAGGAUUGAGCAUCA
B6: chr11:44260439:44264853:-|three_prime_utr|ENSG00000052850|control|control|control (ssRNA)
RNA: GGGAGUUCUACAGUCCGACGAUCGACACCAUGGGCCACGCCCAUGUUUUCCAGGCCCCCAGCCUCCCACUCGACUUUCCUCUUAGGAACCUGGCCUGGGCCAGGGGCCUGACCCUCAGCACUUUCAGCCGCCCCAAGUCUGAGCAACAGAGGAUUGAGCAUCA
B7: chr5:154817497:154817598:+|3pUTR|ENSG00000155506|msi1_unk|FALSE|overlapping (ssRNA)
RNA: GGGAGUUCUACAGUCCGACGAUCUUAUUGAGAGUAUCUGCUUUCCAGGCUGAAGUGAUUCAUUCAUUAUUCUAGUCCUGCUUUAGUCCUUUGUAAUUUGUGGUAAUUAUGCUUUUCUUUUUAAUACAAAAAAAUGUAUAAAAACAACAGAGGAUUGAGCAUCA
B8: chr3:48432659:48432768:-|CDS|ENSG00000164051|unk|FALSE|unique (ssRNA)
RNA: GGGAGUUCUACAGUCCGACGAUCAGUCCCCCGACCAGAGACAGAGAUGUAGAUGUCCUUUCAGCUGCCUUGAAAGAGCAGCUUAGUCAUUCCAGGCAAGUCCAUUCAUGUCUAGAAGGCUUACGAGAGCAGCUUGAUGGCCUACAACAGAGGAUUGAGCAUCA
B9: chr3:98799072:98799370:-|3pUTR|ENSG00000057019|msi1|FALSE|unique (ssRNA)
RNA: GGGAGUUCUACAGUCCGACGAUCCAAAGCAUCGUUUUAAAGCACAUGGCCUUUUUUUUUUAAUUAUUAGUGGUAGUAAUAUAUAGAAUGUAUUACAUAACUGUCACUGAAGUGGUUGGGGAAAAUGUGGUGACUGAGGUACAGCAACAGAGGAUUGAGCAUCA
B10: chr7:149103614:149105566:-|CDS|ENSG00000204947|control|control|control (ssRNA)
RNA: GGGAGUUCUACAGUCCGACGAUCGAGACCCCAGGGCGCUUAGAAAUUCCCACAGGGCCAAGAUGCUAUUCCUGCUAUGUCUGUAGGAAAGUCUUCCAAGUAAGGAGGGAUUUGCUAAAGCACAAACGGAGCCACUCCAAGAGCCAACAGAGGAUUGAGCAUCA
B11: chr16:46798953:46799054:-|3pUTR|ENSG00000155330|unk|FALSE|unique (ssRNA)
RNA: GGGAGUUCUACAGUCCGACGAUCUCUAUAUUUUUUUCUUUGCCUUAUUGCACUGGUUGGGACUUUUUGCCUUGAUCCAGUUGUAGGGGGGAAACAUUCAGUCAUUAAGCAUUAAAUAACUUUGUUGUUGUUGUGGGCUUGAAACAACAGAGGAUUGAGCAUCA
B12: chr12:52430540:52430705:-|CDS|ENSG00000170454|control|control|control (ssRNA)
RNA: GGGAGUUCUACAGUCCGACGAUCCAGGUCGGUGACACAUCCGUGGUGCUGUCCAUGGACAACAACCGCAACCUGGACCUGGAUAGUAUCAUCGCCGAGGUCAAAGCACAAUACGAGGACAUUGCCAACCGCAGCCGGGCCGAGCAACAGAGGAUUGAGCAUCA
B13: chr22:31279490:31279591:+|3pUTR|ENSG00000182541|msi1|FALSE|unique (ssRNA)
RNA: GGGAGUUCUACAGUCCGACGAUCAGCAGCUUGGGCUGGGAAGAGGUGGUGGCAGAGUCUCAAAGCUGAGAUGCUGAGAGAGAUAGCUCCCUGAGCUGGGCCAUCUGACUUCUACCUCCCAUGUUUGCUCUCCCAACUCAUUAGCAACAGAGGAUUGAGCAUCA
B14: chr7:158734047:158734148:-|3pUTR|ENSG00000117868|msi1_unk|FALSE|overlapping (ssRNA)
RNA: GGGAGUUCUACAGUCCGACGAUCCUACCCGGAACACACCCUCUCACAGACGUACCAAUGUUAUUUUUAUAAUUUCAUGGAUUUAGUUAUACAUACCUUAAUAGUUUUAUAAAAUUGUUGACAUUUCAGGCAAAUUUGGCCAAUCAACAGAGGAUUGAGCAUCA
B15: chr3:133826890:133826991:-|3pUTR|ENSG00000154917|unk|total|mutant (ssRNA)
RNA: GGGAGUUCUACAGUCCGACGAUCUUUGAACGUGUUUCAGAUGUCAUGUGUUCCGUUUUUAUAUGUGUGUACAUAAUUAUAUACCGAGACCGACUUGUGUAUACACCUUCCACAAACACAUCCUCACGGAGAUACAUGUGCUCACAACAGAGGAUUGAGCAUCA
B16: chr9:15474029:15474130:-|CDS|ENSG00000164985|unk|total|mutant (ssRNA)
RNA: GGGAGUUCUACAGUCCGACGAUCAAGAAAAGAGCCGGAUAAAAAAGAGGGGAAGAAAGAAGUUGAAUCAAAAAGGAAAAAUUCCGCUAAAACAGGGGUUACUUCAACCUCCGAUUCUGAAGAAGAAGGAGAUGAUCAAGAAGGCAACAGAGGAUUGAGCAUCA
B17: chr10:15513953:15517157:-|three_prime_utr|ENSG00000077943|control|control|control (ssRNA)
RNA: GGGAGUUCUACAGUCCGACGAUCUAAGUUGCAGUCCAGAUCAAUCCAGCAUAAGUUGCAGAGAUGAAAUGUCUGAAUCACUAUAGAAUUUACAAGGUGAACUAAGGUGAAAUGACUGAUUUACUAUAGAACUUAGAACUAAGACAACAGAGGAUUGAGCAUCA
B18: chr3:179334110:179334217:+|CDS|ENSG00000121864|unk|total|mutant (ssRNA)
RNA: GGGAGUUCUACAGUCCGACGAUCACAUACAAAAAUUUUUCCUCAUGUUUGUGAUGACUGUGGGAAAGGCUUUUCAAGUAUGCCCGAAUAUUGCAAGCAUUUAAAUUCACAUUUAUCUGAAGGGAUUUAUUUAUGUCAAUAUUGCAACAGAGGAUUGAGCAUCA
B19: chr1:51919672:51919773:-|3pUTR|ENSG00000169213|unk|FALSE|unique (ssRNA)
RNA: GGGAGUUCUACAGUCCGACGAUCUAUUCUUUGCCUGCCCCUGGGGUUCUCUGCAGAUGGUCCCAGUAAUAGAUACUCAGCACUAGACUAACAUAACAGGUCACUACACGGGUGCAGAAUCACUUUACAAAAGAAGACUCUGUUCAACAGAGGAUUGAGCAUCA
B20: chr8:23842656:23842757:-|3pUTR|ENSG00000159167|msi1|FALSE|unique (ssRNA)
RNA: GGGAGUUCUACAGUCCGACGAUCCCCCAAACUUAUGGACACUGCCUUAGCCUCUUGGAAAUCAGGUAGACCAUAUUCUAAGUUAGACUCUUCCCCUCCCUCCCACACUUCCCACCCCCAGGCAAGGCUGACUUCUCUGAAUCACAACAGAGGAUUGAGCAUCA
B21: chr15:99715702:99716401:-|three_prime_utr|ENSG00000183060|control|control|control (ssRNA)
RNA: GGGAGUUCUACAGUCCGACGAUCUGUUGACUACAAACAUUUACCAAAUACAUAAAUCUCUUUUAAAAAAGCCAUUUUAAAUAUAGCAAAGCAGUGUCUUCUUGCACAGCAAAGUGAAGAAAGUUUCUACAGAGAAAUAGAAGUCAACAGAGGAUUGAGCAUCA
B22: chr9:69711526:69711627:-|3pUTR|ENSG00000188647|unk|FALSE|unique (ssRNA)
RNA: GGGAGUUCUACAGUCCGACGAUCGAACUGCUGUAGUCUUCUGCAAUCAGUCUCUGUAUUGGUAUAUCCAGUACUAUCGGGUUUAGGUUCUUUUUAUUUUUCCUUAAAUCUUACUUGUUUCUAGCGUCUUAAGAGUGGUAAUGGCAACAGAGGAUUGAGCAUCA

Each binder was assayed against MSI1 full-length (mouse, UniProt Q61474 1-362) (assay: nsRBNS (natural sequence RNA bind-n-seq); RBNS binding buffer (assumed for nsRBNS): 25 mM Tris pH 7.5, 150 mM KCl, 3 mM MgCl2, 0.01% Triton X-100, 500 ug/ml BSA, 20 U/ml SUPERase-In, 4 C; UNK is unkempt and MSI1 is Musashi-1; names of the RNAs are library labels; protein concentration not given here; high values mean tight binding).
Chain of UniProt Q61474 (Q61474 whole entry): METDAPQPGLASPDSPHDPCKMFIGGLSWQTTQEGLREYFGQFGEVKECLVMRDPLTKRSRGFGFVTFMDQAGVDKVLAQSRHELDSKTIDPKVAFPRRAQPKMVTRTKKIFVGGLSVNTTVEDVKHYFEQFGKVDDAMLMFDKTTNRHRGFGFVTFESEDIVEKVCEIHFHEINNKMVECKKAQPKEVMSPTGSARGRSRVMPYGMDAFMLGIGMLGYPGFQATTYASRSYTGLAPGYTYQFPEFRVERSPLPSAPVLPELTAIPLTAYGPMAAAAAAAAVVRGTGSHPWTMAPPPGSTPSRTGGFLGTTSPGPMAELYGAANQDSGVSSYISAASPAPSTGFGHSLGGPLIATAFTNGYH
B1 was tested, and the binding signal was 0.688 enrichment R. B2 gave a binding signal of 0.451 enrichment R. For B3, the binding signal was 0.275 enrichment R. With B4 the binding signal was 0.6 enrichment R. B5 gave a binding signal of 0.593 enrichment R. B6 was tested, and the binding signal was 0.408 enrichment R. Work on B7 yielded a binding signal of 1.21 enrichment R. Binder B8 has a binding signal of 0.46 enrichment R. B9 gave a binding signal of 2.71 enrichment R. With B10 the binding signal was 0.389 enrichment R. With B11 the binding signal was 0.429 enrichment R. B12 gave a binding signal of 0.352 enrichment R. Binder B13 has a binding signal of 0.589 enrichment R. Work on B14 yielded a binding signal of 20.8 enrichment R. B15 showed a binding signal of 0.348 enrichment R. B16 gave a binding signal of 0.513 enrichment R. For B17, the binding signal was 0.711 enrichment R. B18 was tested, and the binding signal was 0.264 enrichment R. For B19, the binding signal was 0.896 enrichment R. For B20, the binding signal was 1.03 enrichment R. In the case of B21, the binding signal is reported as 3.04 enrichment R. B22 showed a binding signal of 3.44 enrichment R.
